153 variants from a collection of fitness landscapes (doi:10.1126/science.1257360) can be followed below.

The other results are listed elsewhere or left out. Where only a bound is given, the exact number is not on record here.

B1: PhoQ; a variant is named by its letters at X, in order, P23837 (parent)
chain: MKKLLRLFFPLSLRVRFLLATAAVVLVLSLAYGMVALIGYSVSFDKTTFRLLRGESNLFYTLAKWENNKLHVELPENIDKQSPTMTLIYDENGQLLWAQRDVPWLMKMIQPDWLKSNGFHEIEADVNDTSLLLSGDHSIQQQLQEVREDDDDAEMTHSVAVNVYPATSRMPKLTIVVVDTIPVELKSSYMVWSWFIYVLSANLLLVIPLLWVAAWWSLRPIEALAKEVRELEEHNRELLNPATTRELTSLVRNLNRLLKSERERYDKYRTTLTDLTHSLKTPLXXLQXXLRSLRSEKMSVSDAEPVMLEQISRISQQIGYYLHRASMRGGTLLSRELHPVAPLLDNLTSALNKVYQRKGVNISLDISPEISFVGEQNDFVEVMGNVLDNACKYCLEFVEISARQTDEHLYIVVEDDGPGIPLSKREVIFDRGQRVDTLRPGQGVGLAVAREITEQYEGKIVAGESMLGGARMEVIFGRQHSAPKDE

Variants of B1 are the subject of the assay. Briefly: enrichment ratio after two sorts for PhoP signalling (ratio (wild type AVST 3.29)); higher = more functional. Particulars: with PhoP (E. coli).
As for SGTE, the enrichment ratio is not above 0.25.
For the variant SPDC, the enrichment ratio is not above 0.25.
Consider GMFE, for which the enrichment ratio is not above 0.25.
For LFVC the value was not above 0.25; for WSAS, not above 0.25; for IHDK, not above 0.25.
Consider SHGL, for which the enrichment ratio is not above 0.25.
With TRYN the figure was not above 0.25.
For LQIV the value was not above 0.25; for AIMM, 35.5; for RSIQ, not above 0.25.
HRTH: the enrichment ratio is not above 0.25.
For SRMP the value was not above 0.25; for RFWF, not above 0.25; for GMGC, not above 0.25.
For RYRI the value was not above 0.25; for TNRD, not above 0.25; for RSVM, not above 0.25.
Turning to VNIG, the enrichment ratio is not above 0.25.
For FMAA the value was not above 0.25; for DFVW, not above 0.25; for HFNI, not above 0.25.
With AIVF the figure was 2.34; with LLDG, not above 0.25.
With TDDN the figure was not above 0.25; with QMPE, not above 0.25; with GQRW, not above 0.25.
In the case of LKRK, the enrichment ratio was not above 0.25.
For TNTV the value was 10.2; for FLIY, not above 0.25.
For GDKQ the value was not above 0.25; for YYGW, not above 0.25.
For QVHT, the enrichment ratio is not above 0.25.
For the variant KQFI, the enrichment ratio is not above 0.25.
Take DYNK: the enrichment ratio was not above 0.25.
For STLW the value was 3.71; for KPEY, not above 0.25; for ENEH, not above 0.25.
For the variant AWDA, the enrichment ratio is not above 0.25.
For PTCG the value was not above 0.25; for KSRF, not above 0.25; for IFDD, not above 0.25.
With DFQG the figure was not above 0.25; with FYKP, not above 0.25.
In the case of SFWK, the enrichment ratio was not above 0.25.
With GIFY the figure was not above 0.25.
For HFDV the value was not above 0.25; for LCHY, not above 0.25; for QWTC, not above 0.25.
With LCGS the figure was not above 0.25.
RSDK: the enrichment ratio is not above 0.25.
With ACQG the figure was not above 0.25.
Take KNND: the enrichment ratio is not above 0.25.
With DEPG the figure was not above 0.25.
With NYNM the figure was not above 0.25.
For WVNW the value was not above 0.25; for LMPV, not above 0.25; for HGDT, not above 0.25.
In the case of YHCQ, the enrichment ratio was not above 0.25.
For HDDM the value was not above 0.25; for LEPQ, not above 0.25; for YYGL, not above 0.25.
Turning to FPFI, the enrichment ratio was not above 0.25.
SCHM: the enrichment ratio is not above 0.25.
With NWIS, the enrichment ratio was not above 0.25.
For LFKY the value was not above 0.25; for SKCW, not above 0.25; for LYHM, not above 0.25.
Consider EKPP, for which the enrichment ratio was not above 0.25.
For ENLN the value was not above 0.25; for GRYP, not above 0.25.
For ILCF, the enrichment ratio is not above 0.25.
For QFEW the value was not above 0.25; for MYEP, not above 0.25.
For YEHL the value was not above 0.25; for YCVL, not above 0.25; for WQHL, not above 0.25.
On to HNYK, for which the enrichment ratio was not above 0.25.
With KYLC the figure was not above 0.25; with PWKL, not above 0.25.
As for NELG, the enrichment ratio worked out at 2.34.
With YHWK the figure was not above 0.25; with NWRP, not above 0.25.
For the variant KRQN, the enrichment ratio is not above 0.25.
For NGIN the value was not above 0.25; for DIAI, not above 0.25; for DSEC, not above 0.25.
With HMKA the figure was not above 0.25; with SQEM, not above 0.25; with HLMW, not above 0.25.
For WYKG the value was not above 0.25.
Consider GWKH, for which the enrichment ratio is not above 0.25.
MHRM: the enrichment ratio is not above 0.25.
As for SAGN, the enrichment ratio was determined as 8.51.
Turning to HKGT, the enrichment ratio is not above 0.25.
For ECAW the value was not above 0.25; for QLGW, not above 0.25; for QICT, not above 0.25.
For GDKD, the enrichment ratio is not above 0.25.
With TRRS the figure was not above 0.25.
With GTPK the figure was not above 0.25.
With KPPR, the enrichment ratio is not above 0.25.
Turning to KMPW, the enrichment ratio was not above 0.25.
For QSIG the value was not above 0.25; for IYSL, 1.11.
With RNIW the figure was not above 0.25.
On to KFAW, for which the enrichment ratio was not above 0.25.
For ITRN the value was not above 0.25; for EDSS, not above 0.25.
On to FAKE, for which the enrichment ratio is not above 0.25.
For RPSN the value was not above 0.25.
For STVQ the value was 12; for QFMY, not above 0.25.
On to RTVI, for which the enrichment ratio was not above 0.25.
On to HDAS, for which the enrichment ratio is not above 0.25.
QSNP: the enrichment ratio is not above 0.25.
In the case of FYVP, the enrichment ratio was not above 0.25.
As to VSAF, the enrichment ratio came to 0.399.
For LFKL the value was not above 0.25.
For VPPC the value was not above 0.25.
With AMMS the figure was 1.12.
Take DRGN: the enrichment ratio is not above 0.25.
Turning to WMHY, the enrichment ratio is not above 0.25.
For QARE the value was not above 0.25; for IQNH, not above 0.25; for TGLP, not above 0.25.
With HEGT the figure was not above 0.25; with IHRR, not above 0.25; with FRKE, not above 0.25.
Consider FHVW, for which the enrichment ratio was not above 0.25.
Regarding AGYL, the enrichment ratio was determined as 4.28.
In the case of KECV, the enrichment ratio is not above 0.25.
Take ALHC: the enrichment ratio was not above 0.25.
With RLEH the figure was not above 0.25; with KGFV, not above 0.25; with TDCD, not above 0.25.
With HKWF the figure was not above 0.25; with IWAS, not above 0.25; with NSYW, not above 0.25.
Regarding GYHK, the enrichment ratio is not above 0.25.
As to GELE, the enrichment ratio was not above 0.25.
Regarding PICE, the enrichment ratio was not above 0.25.
For LMIA the value was not above 0.25; for HSIF, not above 0.25; for QRFP, not above 0.25.
As for DGCF, the enrichment ratio is not above 0.25.
For the variant RIWT, the enrichment ratio is not above 0.25.
Regarding KVVE, the enrichment ratio is not above 0.25.
For the variant PFYD, the enrichment ratio is not above 0.25.
Turning to LIVT, the enrichment ratio was not above 0.25.
For TKCD the value was 21.6; for LATS, not above 0.25; for PADI, not above 0.25.
